Results on 50 molecules are retold here after PubChem BioAssay AID1645887 (National Center for Advancing Translational Sciences (NCATS), 2021).

Where “and” joins values, the source holds several entries; their conditions need not be identical. Equal values may be shown once. About 40 (0.2%) of roughly 16,000 compounds were called active. Not shown: some 1% with an inconclusive outcome. Calls follow the shape of the dose curve; as a rule, active = well fitted activation curve with a large enough effect; inconclusive = small, poorly fitted or top-dose-only effect, or another doubt; inactive = no such curve, though single readings can be large or run the other way. The list shows a part of the results.
% is scaled to controls: 0 for no effect and ±100 for the full control effect.

The target in the assay is Rap guanine nucleotide exchange factor 4 (Homo sapiens) (UniProt Q8WZA2). As to the kind of experiment: Validation qHTS for agonist of cAMP-regulated guanine nucleotide exchange factor 4 (EPAC2).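 Also: exchange makes BODIPY-GDP fluorescence drop when released from Rap1B; series mostly up to about 150 µM.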 The following applies: EPAC2 Rap1B BODIPY-GDP exchange, fluorescence; activation: active compounds read high. The method, boiled down: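 Signal normalized against 6.5 mM cAMP as agonist control. Mix of EPAC2 (100 nM), RAP1B-BODIPY-GDP (250 nM) and GDP (50 uM) was read kinetically at 480/540 nm, every 5 min over 30 min, after 5 min room-temperature incubation with compound.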
Sequence of UniProt Q8WZA2 (Q8WZA2 whole entry, looked up): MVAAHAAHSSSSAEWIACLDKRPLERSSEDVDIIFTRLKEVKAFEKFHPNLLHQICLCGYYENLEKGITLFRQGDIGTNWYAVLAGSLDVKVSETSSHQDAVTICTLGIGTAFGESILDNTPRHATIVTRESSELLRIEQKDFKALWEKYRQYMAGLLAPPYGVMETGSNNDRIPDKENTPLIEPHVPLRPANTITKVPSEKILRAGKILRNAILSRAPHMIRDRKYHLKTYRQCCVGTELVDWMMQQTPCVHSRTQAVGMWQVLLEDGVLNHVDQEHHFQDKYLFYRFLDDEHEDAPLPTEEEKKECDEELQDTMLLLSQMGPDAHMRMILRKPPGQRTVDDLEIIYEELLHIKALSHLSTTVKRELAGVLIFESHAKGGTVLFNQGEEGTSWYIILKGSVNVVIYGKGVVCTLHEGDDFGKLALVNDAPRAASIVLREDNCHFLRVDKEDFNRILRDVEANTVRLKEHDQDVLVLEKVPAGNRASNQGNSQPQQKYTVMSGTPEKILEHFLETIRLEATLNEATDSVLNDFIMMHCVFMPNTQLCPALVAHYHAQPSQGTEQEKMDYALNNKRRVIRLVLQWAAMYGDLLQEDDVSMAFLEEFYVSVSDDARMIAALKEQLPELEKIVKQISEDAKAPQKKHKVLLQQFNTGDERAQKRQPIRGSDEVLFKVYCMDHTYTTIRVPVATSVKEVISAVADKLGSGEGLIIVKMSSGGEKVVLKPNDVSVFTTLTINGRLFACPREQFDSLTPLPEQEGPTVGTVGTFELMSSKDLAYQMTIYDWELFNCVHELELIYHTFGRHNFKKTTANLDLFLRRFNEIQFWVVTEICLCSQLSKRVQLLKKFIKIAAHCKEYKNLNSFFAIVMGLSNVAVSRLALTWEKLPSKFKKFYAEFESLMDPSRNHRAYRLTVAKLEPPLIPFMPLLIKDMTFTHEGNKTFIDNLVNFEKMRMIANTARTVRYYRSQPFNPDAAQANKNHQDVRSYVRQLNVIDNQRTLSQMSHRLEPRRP
A general note: qHTS replaces the single test concentration by a dilution series.
As for `COCCn1c(=O)c(-c2cc(F)cc(F)c2)nc2cnc(OC)nc21`, the activation was inactive: -8.57%.

In the case of `C=CC[n+]1cccc2cc(Br)ccc21`, the activation is inactive: -18.5%.

On to `COc1ccc(Oc2ncc3nc(-c4cc(F)cc(F)c4)c(=O)n(C[C@H]4CCCO4)c3n2)cc1`, for which the activation is inactive: -4.06%.

For the molecule `COc1ccccc1N1CCN(CCn2c(=O)c3c(c4ccccc4n3C)n(C)c2=O)CC1`, the activation was inactive: -10.5% and inactive: -2.11%.

In the case of `COc1ccc2c(c1)OC1(O)COc3cc(OC)c(OC)cc3C1=C2` (stereo not given), the activation is inactive: -13.9%.

With `Cn1cnnc1Sc1ccc(CN2CCOc3ccc(C4=Cc5ccccc5CC4)cc3C2)o1`, the activation is inactive: 5.51%.

For the molecule `C[C@H]1CCC(=O)N(CCSc2ccc(Br)cc2)CC1`, the activation was inactive: -27.3%.

On to `COc1ccc(-c2cc(=O)c3c(O)cc(O)c(-c4cc(-c5cc(=O)c6c(O)cc(O)cc6o5)ccc4OC)c3o2)cc1`, for which the activation was inactive: -9.24%.

`CCCCC(CC)COC(=O)c1ccccc1C(=O)O` (stereo not given): the activation is inactive: -20.7%.

Consider `Cc1oc(-c2cccc(NC(=O)c3ccccn3)c2)nc1CNC(=O)c1cc(F)c(F)cc1F`, for which the activation was inactive: 8.09%.

As for `Cc1ccc(O)c(N=Nc2ccccc2)n1`, the activation is inactive: -27.6% and inactive: -17.8% and inactive: -43.7%.

On to `Cc1c(C)c2c(c(C)c1O)CCC(C)(COc1ccc(CC3SC(=O)NC3=O)cc1)O2` (stereo not given), for which the activation is inactive: -7.9% and inactive: -3.31%.

On to `CC(C)(C)NC[C@@H](O)COc1nsnc1N1CCOCC1`, for which the activation is inactive: 9.22%.

With `COc1ccc2c(c1)OC/C(=C\c1ccc(OC)c(O)c1)C2=O`, the activation is inactive: -7.86%.

Consider `O=C(O[C@H]1[C@H](Cc2ccccc2)NS(=O)(=O)[C@H]2C[C@@H]3C=C[C@]12O3)c1ccccc1Br`, for which the activation was inactive: -13.9%.

With `COC(=O)C1=C(C)NC(C)=C(C(=O)OCCN2CCN(C(c3ccccc3)c3ccccc3)CC2)C1c1cccc([N+](=O)[O-])c1` (stereo not given), the activation is inactive: 4.05%.

In the case of `Cc1c(C(=O)NC2CCCC2)sc2ncnc(NCCN(C)C)c12`, the activation is inactive: -10.3%.

Turning to `C=Cc1c(C)c2cc3[nH]c(cc4nc(cc5nc(cc1[nH]2)C(C)=C5CCC(=O)O)C(CCC(=O)O)=C4C)c(C)c3C=C`, the activation was inactive: -0.696% and inactive: 6.86% and inactive: 25.2%.

In the case of `O=C1CCC[C@@H]2CC(N(Cc3cc4ccccc4s3)c3ccccc3)C[C@@H]3CCN1[C@H]23` (stereo not given in full), the activation was inactive: -4.27%.

For `COC(c1ccccc1)(c1ccccc1)[C@H](Oc1nc(C)cc(C)n1)C(=O)O`, the activation was inactive: -6.55%.

Take `CC1(C)[C@@H]2CC[C@@]1(C)C(=O)C2`: the activation is inactive: -8.37% and inactive: -19.8%.

Regarding `CC(=O)OC1C[C@@]2(C)C(c3ccoc3)OC(=O)C3O[C@@]32[C@]2(C)C(OC(C)=O)CC3C(C)(C)C(OC(C)=O)CC(OC(C)=O)[C@@]3(C)C12` (stereo not given in full), the activation is inactive: 0.171%.

Regarding `COc1cc(-c2cc(C)c3c(OC)ccc(OC)c3n2)cc2c1OCCN(C(=O)C(C)c1n[nH]c(=O)c3ccccc13)C2` (stereo not given), the activation was inactive: -4.57%.

Consider `COc1ccc2[nH]cc(CC(N)C(=O)O)c2c1` (stereo not given), for which the activation was inactive: 0.811% and inactive: -1.94%.

As to `OC1(c2cccnc2)CCN(Cc2ccc3c(c2)CN(Cc2ccc(Cl)cc2)CCO3)CC1`, the activation is inactive: 2.43%.

With `COc1ccccc1C(=O)N[C@@H]1c2ccccc2C2(CCN(Cc3c(O)cccc3OC)CC2)[C@H]1O`, the activation is inactive: -0.604%.

Turning to `COc1ccc2[nH]cc(CCNc3cc(-c4ccccc4C)ncn3)c2c1`, the activation was inactive: -5.84%.

With `O=C(O)[C@@H](O)[C@H](O)[C@H](O)[C@@H](O)C(=O)O`, the activation was inactive: 6.86%.

As for `Cc1ncc(Cc2ccccc2)c(C2CCN(S(=O)(=O)C[C@]34CC[C@H](CC3=O)C4(C)C)CC2)n1`, the activation is inactive: -1.79%.

Take `COc1ccc(C(=O)N2CCC3(CCN(CC(C)C)CC3)CC2)cc1`: the activation is inactive: -2.26%.

Take `O=C(c1ccco1)N1CCC2(CCCN(Cc3ccncc3)C2)CC1`: the activation is inactive: -18.9%.

For `O=C(O)c1cc(=O)cc(C(=O)O)[nH]1`, the activation is inactive: -27.8%.

Take `COc1cccc(-c2ccnc(-n3ncc(C(=O)N(C)CCc4ccccn4)c3C)n2)c1`: the activation is inactive: -2.71%.

For `CC(=O)O[C@@]1(C(C)=O)CCC2C3C=C(C)C4=CC(=O)CCC4(C)C3CCC21C` (stereo not given in full), the activation was inactive: -1.95%.

On to `CN1CCC(=C2c3ccccc3CCc3cccnc32)CC1`, for which the activation was inactive: 4.83%.

On to `Cc1nn(C)cc1CNc1nc(C)c(-c2ccn(CC3COc4ccccc4O3)n2)s1` (stereo not given), for which the activation was inactive: 6.74%.

Regarding `Oc1cc(O)c2c(c1)O[C@H](c1ccc(O)c(O)c1)[C@H](O)C2`, the activation is inactive: -22%.

With `Nc1nc2ccc(OC(F)(F)F)cc2s1`, the activation was inactive: -34.5% and inactive: -36.1% and inactive: -36%.

For the molecule `COc1ccc2c(c1)c(CC(=O)O)c(C)n2C(=O)c1ccc(Cl)cc1`, the activation is inactive: -5.24% [middle of 4 runs].

Take `CCSc1nnc(C(C)NC(=O)c2ccc(OC)cc2)n1C` (stereo not given): the activation was inactive: -0.603%.

As to `c1csc(CNc2ccnc(-c3ccc4c(c3)OCO4)n2)c1`, the activation was inactive: -8.61%.

As for `O=C1CCN(Cc2ccc(O)cc2)CCN1[C@H](CO)c1ccccc1`, the activation was inactive: -1.51%.

In the case of `C(=C\c1ccccc1)/CN1CCN(C(c2ccccc2)c2ccccc2)CC1`, the activation was inactive: -12.1% and inactive: -74.3%.

Regarding `Cn1c(=O)[nH]c(=O)c2[nH]cnc21`, the activation is inactive: 5.45%.

For the molecule `Nc1nc2c(ncn2[C@@H]2O[C@H](COP(=O)(O)OP(=O)(O)OP(=O)(O)O)[C@@H](O)C2O)c(=O)[nH]1` (stereo not given in full), the activation was inactive: -4.41%.

In the case of `CCOC(=O)C1CCCN(C(=O)c2cnn(-c3nccc(-c4cc(C)sc4C)n3)c2C)C1` (stereo not given), the activation was inactive: -2.19%.

For `O=C(O)[C@H](O)c1ccccc1`, the activation was inactive: -7.94%.

For the molecule `C=CS(=O)(=O)N(Cc1ccccc1)[C@H](CO)CC(C)C`, the activation was inactive: -29.5%.

Turning to `COc1ccc(C(=O)N2CCC3(CC2)c2ccccc2[C@@H](NC(=O)c2ccccn2)[C@@H]3OC)c(O)c1`, the activation was inactive: 3.44%.

Take `CN1CCN(c2ncc3ncc(=O)n(Cc4ccc(F)cc4)c3n2)CC1`: the activation is inactive: -10%.
